Target: T1, human parkin ubiquitin-like domain (residues 1-77) (human, UniProt O60260 1-77)
T1 sequence (looked up): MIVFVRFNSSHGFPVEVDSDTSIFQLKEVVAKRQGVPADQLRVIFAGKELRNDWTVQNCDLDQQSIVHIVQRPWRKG
Experiment: NMR titration

KD of each UIM site (model of three identical binding sites): 669 ± 62 µM
B1: ataxin-3 fragment containing all three UIM sequences ([…], UIM_123) (domain or fragment)
chain: not shown

From publication PMC3807529 (Biochemistry, 2013)
